No constants are given. Whether binding was seen depends on the method and setting. Some results given as binding are weak or reduced against the parent protein; the word gives no strength. Sequences can lack the tags named with a protein.
B1: DnaN, GAL4 fusion (yeast two-hybrid and three-hybrid) (protein, UniProt P05649 1-378)
chain: MKFTIQKDRLVESVQDVLKAVSSRTTIPILTGIKIVASDDGVSFTGSDSDISIESFIPKEEGDKEIVTIEQPGSIVLQARFFSEIVKKLPMATVEIEVQNQYLTIIRSGKAEFNLNGLDADEYPHLPQIEEHHAIQIPTDLLKNLIRQTVFAVSTSETRPILTGVNWKVEQSELLCTATDSHRLALRKAKLDIPEDRSYNVVIPGKSLTELSKILDDNQELVDIVITETQVLFKAKNVLFFSRLLDGNYPDTTSLIPQDSKTEIIVNTKEFLQAIDRASLLAREGRNNVVKLSAKPAESIEISSNSPEIGKVVEAIVADQIEGEELNISFSPKYMLDALKVLEGAEIRVSFTGAMRPFLIRTPNDETIVQLILPVRTY
B2: DnaN (co-expressed with histidine tagged YabA) (protein, UniProt P05649 1-378)
chain: B1 chain

The chains behind the UniProt entries cited, without tags or fusion partners. Where a name states a change or a piece, a line headed by the entry shows the natural chain unless it says otherwise. Residues count along the entry.
UniProt P37542: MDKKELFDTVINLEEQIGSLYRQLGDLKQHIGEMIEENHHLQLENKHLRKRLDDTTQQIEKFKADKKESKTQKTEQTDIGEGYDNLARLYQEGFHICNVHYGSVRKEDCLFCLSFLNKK
YabA^62–119, GAL4 fusion (yeast two-hybrid): residues 62-119 of P37542

Columns and labels:
[1] = molecular target: YabA full length expressed from the p3HB vector (third protein of the yeast three-hybrid assay) (B. subtilis) (UniProt P37542); experiment: yeast three-hybrid; full length YabA from p3HB co-expressed with BD and AD fusions of DnaA and DnaN; growth on SD-LUWH and SD-LUWA
[2] = molecular target: YabA H95L, BD fusion (B. subtilis) (UniProt P37542); experiment: two-hybrid; BD-YabA wild type or mutants (pGBDU) mated with AD-DnaA, AD-DnaN or AD-YabA (pGAD); growth on -LUH and -LUA
[3] = molecular target: YabA H95G, BD fusion (B. subtilis) (UniProt P37542); experiment: as above
[4] = molecular target: YabA E107R, BD fusion (B. subtilis) (UniProt P37542); experiment: as above
[5] = molecular target: YabA F94Y, BD fusion (B. subtilis) (UniProt P37542); experiment: as above
[6] = molecular target: YabA F111Y, BD fusion (B. subtilis) (UniProt P37542); experiment: as above
[7] = molecular target: YabA full length, GAL4 fusion (yeast two-hybrid) (B. subtilis) (UniProt P37542); experiment: as above
[8] = molecular target: YabA D108S, BD fusion (B. subtilis) (UniProt P37542); experiment: as above
[9] = molecular target: YabA R105E, BD fusion (B. subtilis) (UniProt P37542); experiment: as above
[10] = molecular target: YabA H95I, BD fusion (B. subtilis) (UniProt P37542); experiment: as above
[11] = molecular target: YabA F94S, BD fusion (B. subtilis) (UniProt P37542); experiment: as above
[12] = molecular target: YabA E107T, BD fusion (B. subtilis) (UniProt P37542); experiment: as above
[13] = molecular target: YabA^62–119, GAL4 fusion (yeast two-hybrid) (B. subtilis) (UniProt P37542); experiment: two-hybrid; GAL4 BD (pGBDU-C1) and AD (pGAD-C1) fusions, mating of PJ69-4 haploids, growth on SD-LUH and SD-LUA
[14] = molecular target: N-terminally histidine tagged YabA (co-expressed with DnaN) (B. subtilis) (UniProt P37542); experiment: co-purification (HisTrap, then gel filtration); histidine tagged YabA and DnaN co-expressed in E. coli; complex eluted from HisTrap with imidazole and run on Superdex 200 in 30 mM Tris pH 8, 150 mM NaCl, 5% glycerol

| Binder | binding [1] | binding [2] | binding [3] | binding [4] | binding [5] | binding [6] | binding [7] | binding [8] | binding [9] | binding [10] | binding [11] | binding [12] | binding [13] | binding [14] |
| --- | --- | --- | --- | --- | --- | --- | --- | --- | --- | --- | --- | --- | --- | --- |
| B1 | binds | no binding | binds | no binding | binds | no binding | binds | no binding | binds | no binding | binds | no binding | binds | – |
| B2 | – | – | – | – | – | – | – | – | – | – | – | – | – | binds |
